Legend:
HCC827 cells = settings: 6 days, CTG
HPAC cells = settings: 6 days, CTG
[1] = system: human pancreatic acinar epithelial carcinoma cell HPAC tumor-bearing mice; assay: Efficacy of ADCs in in vivo HPAC CDX model; settings: 6 mpk
[2] = system: human non-small cell lung cancer HCC827 tumor-bearing mice; assay: Efficacy of ADCs in in vivo HCC827 CDX model; settings: 6 mpk
[3] = D1 D9, intraperitoneal injection, D30
[4] = one dose, intraperitoneal injection, D30

B1: IgG1-9-A: negative control antibody IgG1 conjugated to toxin 9-A; n = 6.15 (conjugate)
heavy: QVQLVQSGAEVKKPGASVKVSCKASGYTFTNSWIGWFRQAPGQGLEWIGDIYPGGGYTNYNEIFKGKATMTADTSTNTAYMELSSLRSEDTAVYYCSRGIPGYAMDYWGQGTLVTVSS[human IgG1 constant region not spelt out]
light: DIQMTQSPSSLSASVGDRVTMSCKSSQSLLNSGDQKNYLTWYQQKPGKAPKLLIYWASTGESGVPSRFSGSGSGTDFTFTISSLQPEDIATYYCQNDYSYPWTFGQGTKVEIKRTVAAPSVFIFPPSDEQLKSGTASVVCLLNNFYPREAKVQWKVDNALQSGNSQESVTEQDSKDSTYSLSSTLTLSKADYEKHKVYACEVTHQGLSSPVTKSFNRGEC
Work on B1 yielded an IC50 (HCC827 cells) of 163 nM, an IMax% (HCC827 cells) of 84.25% and an IC50 (HPAC cells) greater than 1000 nM. The IMax% (HPAC cells) was 50.13%, the “Mean tumor volume (mm^3) D30” value [1, 3] was 1566.45 mm^3 and the “Tumor growth inhibition rate (%) D30” value [1, 3] was 7.22%. The “Number of animals per group (number of deaths)” value ([1]; number of deaths, D1 D9 i.p.) was 8(0), the “Mean tumor volume (mm^3) D30” value [2, 4] was 751.50 mm^3 and the “Tumor growth inhibition rate (%) D30” value [2, 4] was -13.71%. For the same molecule, the “Number of animals per group (number of deaths)” value ([2]; number of deaths, one dose i.p.) was 10(0).
